# In paper PMC4336329 (PLoS ONE, 2015):
# About 2,200 (0.71%) of roughly 310,000 compounds showed an effect of 50% or more. The effect is printed as a negative number. The list shows a part of the results.
# Target: human ether-à-go-go-related gene (hERG) potassium channel (human, UniProt Q12809)
# Assay: primary screen, population patch clamp on CHO cells stably expressing hERG
# human ether-à-go-go-related gene (hERG) potassium channel, sequence (Q12809 whole entry, looked up): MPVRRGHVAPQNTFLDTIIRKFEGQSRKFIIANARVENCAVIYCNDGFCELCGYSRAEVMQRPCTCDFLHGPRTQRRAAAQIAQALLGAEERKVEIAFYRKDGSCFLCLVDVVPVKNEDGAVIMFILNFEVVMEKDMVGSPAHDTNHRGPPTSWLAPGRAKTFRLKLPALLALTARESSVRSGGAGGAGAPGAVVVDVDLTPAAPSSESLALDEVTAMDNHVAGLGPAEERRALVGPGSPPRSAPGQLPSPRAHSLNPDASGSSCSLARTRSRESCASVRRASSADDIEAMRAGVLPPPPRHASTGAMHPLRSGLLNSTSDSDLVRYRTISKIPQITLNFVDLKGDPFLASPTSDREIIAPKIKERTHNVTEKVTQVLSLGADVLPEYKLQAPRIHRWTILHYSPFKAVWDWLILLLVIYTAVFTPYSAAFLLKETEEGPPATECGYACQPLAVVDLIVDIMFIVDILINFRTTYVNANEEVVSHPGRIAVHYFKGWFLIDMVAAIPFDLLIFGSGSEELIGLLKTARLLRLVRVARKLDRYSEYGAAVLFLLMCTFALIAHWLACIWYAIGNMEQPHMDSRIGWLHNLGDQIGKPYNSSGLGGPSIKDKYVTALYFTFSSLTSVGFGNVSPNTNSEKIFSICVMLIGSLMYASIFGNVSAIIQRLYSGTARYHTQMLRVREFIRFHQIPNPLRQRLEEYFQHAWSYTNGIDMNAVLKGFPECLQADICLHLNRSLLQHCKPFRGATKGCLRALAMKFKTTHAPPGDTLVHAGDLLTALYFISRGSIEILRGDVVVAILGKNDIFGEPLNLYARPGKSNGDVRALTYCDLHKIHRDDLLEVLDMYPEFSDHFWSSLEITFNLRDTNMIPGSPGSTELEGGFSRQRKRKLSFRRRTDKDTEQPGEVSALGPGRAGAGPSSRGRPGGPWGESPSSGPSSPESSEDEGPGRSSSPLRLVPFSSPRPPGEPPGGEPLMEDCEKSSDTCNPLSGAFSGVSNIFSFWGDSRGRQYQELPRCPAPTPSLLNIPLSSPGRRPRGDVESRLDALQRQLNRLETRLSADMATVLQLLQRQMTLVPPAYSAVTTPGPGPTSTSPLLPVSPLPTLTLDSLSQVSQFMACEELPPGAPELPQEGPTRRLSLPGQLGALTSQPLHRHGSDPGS
row,SMILES,"hERG current change (%, negative = inhibition) at 1uM [%]"
1,Cc1ccc(S(=O)(=O)NC(=O)c2ccc(-c3ccc(-c4ccccc4)cc3)o2)c(C)c1,-12.6
2,COc1ccc(OCc2nnc3n2N=C(c2ccc(Br)cc2)CS3)cc1,3.32
3,COc1ccc([N+](=O)[O-])cc1NC(=O)C(C)c1ccccc1 (stereo not shown),6.25
4,CCOc1ccc(C(=O)NCCO)cc1,9.43
5,CCC(C)NC(=O)c1ccc(NC(=O)CC2SC(N3CCCCC3)=NC2=O)cc1 (stereo not shown),16.5
6,Cc1cc(C)cc(NC(=O)c2cccc(C(=O)Nc3cc(C)cc(C)c3)n2)c1,16.4
7,O=C(Nc1ccccc1)N1CCSc2cc(Cl)ccc21,5.93
8,CCCCn1c(N)c(-c2nc3ccccc3o2)c2c([N+](=O)[O-])nn(CC)c(=O)c21,-0.729
9,CSc1ncc(CN2CCN(CCC(C)C)C(CCO)C2)cn1 (stereo not shown),2.46
10,NC(=O)C1(N2CCCCC2)CCN(CC(=O)Nc2ccccc2Sc2ccccc2)CC1,6.89
11,COc1ccccc1CN1CCC(CNS(=O)(=O)c2cc(-c3onc(C)c3C)ccc2OC)CC1,-22.6
12,COc1ccccc1NC(=O)/C(=C/c1cccc([N+](=O)[O-])c1)c1ccccc1,-1.44
13,CC(=O)N1CCN(C2=Nc3cccc4cccc2c34)CC1,-5.79
14,COc1ccc(OC)c(C(=O)Nc2ccc3[nH]ccc3c2)c1,11.4
15,COc1ccc(CN2C(=O)C(CC(C)C)Nc3ncnc(N4CCN(c5ccccc5)CC4)c32)cc1.O=C(O)C(F)(F)F (stereo not shown),8.77
16,Cc1cccc(Nc2nc(NCCCN3CCOCC3)nc(N)c2[N+](=O)[O-])c1,8.65
17,Fc1ccc(C2c3[nH]c4ccccc4c3CCN2Cc2ccoc2)cc1 (stereo not shown),-5.21
18,Fc1ccc(CNC(=S)Nc2ccccc2Cl)cc1,6.4
19,CC(C)Oc1ccc(CNC(=S)N/N=C/c2ccc([N+](=O)[O-])cc2)cc1,10.6
20,c1ccc2[nH]c(CSc3nc4ccccc4o3)nc2c1,11.6
21,COc1ccc(-c2cc(C(=O)N/N=C(\C)c3cccnc3)c3ccccc3n2)c(OC)c1,3.99
22,O=C(CCC1CCCN(C(=O)Cc2ccc(F)cc2)C1)N1CCN(c2ccccn2)CC1 (stereo not shown),13.3

row,SMILES,"hERG current change (%, negative = inhibition) at 1uM [%]"
1,CCOC(=O)c1c(NC(=O)Cc2cccs2)sc2c1CCCC2,14.5
2,CCCCn1c(N)c(N(CCOC)C(=O)c2cc3ccccc3cc2OC)c(=O)[nH]c1=O,19
3,O=C(NN1CCOCC1)c1ccc([N+](=O)[O-])cc1,9.95
4,CN(C)S(=O)(=O)c1cc(NC(=O)CNCCN2CCOCC2)ccc1Cl.O=C(O)C(=O)O,7.62
5,CCOc1ccc(S(=O)(=O)n2c(C)nc3ccccc32)cc1,-12.4
6,CCn1c2ccccc2c2cc(NC(=O)c3ccc(C)c([N+](=O)[O-])c3)ccc21,7.84
7,Oc1c(Br)cc(Br)cc1/C=N/c1nccs1,5.68
8,CCOCC(=O)Nc1nnc(SCCOC)s1,-4.13
9,O=C(NC1CC1)C1CCN(C2CCN(C(=O)CC3=CCCCC3)CC2)CC1,9.03
10,CCN(CC(=O)Nc1cc(Cl)ccc1C)C(=O)CCS(=O)(=O)c1ccc(Cl)cc1,3.9
11,O=C(NCc1ccncc1)c1cc(-c2ccc(Cl)cc2)oc1C(F)(F)F,9.61
12,Cc1cc(S(=O)(=O)Nc2noc3ccccc23)ccc1F,15.4
13,COc1ccccc1CCNC(=O)Cn1ccc2cc(S(=O)(=O)N3CCCC3)ccc21,31.8
14,O=C(COc1ccccc1F)NNC(=O)c1ccc(N2CCCCC2)c([N+](=O)[O-])c1,-7.47
15,CC(C)(C)c1cc(NC(=O)c2cccc([N+](=O)[O-])c2)no1,2.5
16,CC1=C(C#N)C(c2ccoc2)C(C(=O)OCc2ccccc2)=C(N)S1 (stereo not shown),13.5
17,COc1cc(NC(=S)N2CCN(C/C=C/c3ccccc3)CC2)cc(OC)c1,10
18,O=C(NCc1ccccc1)c1csc(-c2cccnc2)n1,6.75
19,COc1cc(C(Nc2ccc3c(c2)OCO3)C(=O)NC2CCCCC2)cc(OC)c1OC (stereo not shown),-7.09
20,CCc1cccc(C)c1NC(=O)CCCC(=O)O,18.1
21,CC(C)CCN(C(=O)c1csnn1)C(C(=O)NC1CCCC1)c1ccccc1 (stereo not shown),2.94
